Data reported in the supplement of paper PMC8728848.
The other results are listed elsewhere or left out.

Columns and labels:
Assay in all cases: glycan array binding signal (z-score within array); higher = stronger binding
Details in all cases: glycan notation: IUPAC condensed, linker removed; mutation: N224Q
[1] = target: Gal6S(b1-4)Glc
In short: (§1)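 The binding signal is a Z-score computed within each array and averaged over linkers. Arrays of the same protein sequence at different concentrations or buffers were also averaged together. Data originate from 3228 arrays in the Consortium for Functional Glycomics database, kept only where the protein sequence was available.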

[2] = target: Gal6S(b1-4)Glc6S
In short: as §1

[3] = target: Gal6S(b1-4)GlcNAc
In short: as §1

[4] = target: Gal6S(b1-4)GlcNAc6S
In short: as §1

[5] = target: GalNAc(a1-3)Gal
In short: as §1

[6] = target: GalNAc(a1-3)GalNAc
In short: as §1

[7] = target: GalNAc(a1-3)GalNAc(b1-3)Gal(a1-4)Gal(b1-4)Glc
In short: as §1

[8] = target: GalNAc(a1-3)GalNAc(b1-3)Gal(a1-4)Gal(b1-4)GlcNAc
In short: as §1

[9] = target: GalNAc(b1-3)Gal
In short: as §1

[10] = target: GalNAc(b1-3)Gal(a1-4)Gal(b1-4)GlcNAc
In short: as §1

[11] = target: GalNAc(b1-3)Gal(a1-4)Gal(b1-4)GlcNAc(b1-3)Gal(b1-4)Glc
In short: as §1

[12] = target: GalNAc(b1-3)Gal(a1-6)Gal(b1-4)Glc
In short: as §1

[13] = target: GalNAc(b1-3)GalNAc
In short: as §1

[14] = target: GalNAc(b1-3)GlcNAc
In short: as §1

[15] = target: GalNAc(b1-4)Gal(b1-4)Glc
In short: as §1

[16] = target: GalNAc(b1-4)GlcNAc
In short: as §1

[17] = target: GalNAc(b1-4)GlcNAc(b1-2)Man
In short: as §1

[18] = target: GalNAc(b1-4)GlcNAc(b1-2)Man(a1-3)[GalNAc(b1-4)GlcNAc(b1-2)Man(a1-6)]Man(b1-4)GlcNAc(b1-4)GlcNAc
In short: as §1

[19] = target: GalNAc(b1-4)GlcNAc(b1-3)GalNAc(b1-4)GlcNAc
In short: as §1

[20] = target: GalNAc(b1-4)GlcNAc6S
In short: as §1

[21] = target: GalNAc(b1-6)GalNAc
In short: as §1

[22] = target: GalNAc3S(b1-4)GlcNAc
In short: as §1

[23] = target: GalNAc3S(b1-4)GlcNAc3S
In short: as §1

[24] = target: GalNAc3S(b1-4)[Fuc(a1-3)]GlcNAc
In short: as §1

[25] = target: GalNAc4S6S(b1-4)GlcNAc
In short: as §1

[26] = target: GalNAc6S(b1-4)GlcNAc
In short: as §1

[27] = target: Glc(a1-4)Glc
In short: as §1

[28] = target: Glc(a1-4)Glc(a1-4)Glc(a1-4)Glc
In short: as §1

[29] = target: Glc(a1-6)Glc(a1-6)Glc
In short: as §1

[30] = target: Glc(a1-6)Glc(a1-6)Glc(a1-6)Glc
In short: as §1

[31] = target: Glc(b1-4)Glc
In short: as §1

[32] = target: Glc(b1-6)Glc
In short: as §1

[33] = target: GlcA(b1-3)Gal
In short: as §1

[34] = target: GlcA(b1-3)GlcNAc
In short: as §1

[35] = target: GlcA(b1-6)Gal
In short: as §1

[36] = target: GlcA3S(b1-3)Gal(b1-4)GlcNAc(b1-2)Man
In short: as §1

[37] = target: GlcA3S(b1-3)Gal(b1-4)GlcNAc(b1-3)Gal(b1-4)Glc
In short: as §1

[38] = target: GlcNAc(a1-3)Gal(b1-4)GlcNAc
In short: as §1

[39] = target: GlcNAc(a1-4)Gal(b1-3)GlcNAc
In short: as §1

[40] = target: GlcNAc(a1-4)Gal(b1-4)GalNAc
In short: as §1

[41] = target: GlcNAc(a1-4)Gal(b1-4)GlcNAc
In short: as §1

[42] = target: GlcNAc(a1-4)Gal(b1-4)GlcNAc(b1-3)Gal(b1-4)Glc
In short: as §1

[43] = target: GlcNAc(a1-4)Gal(b1-4)GlcNAc(b1-3)Gal(b1-4)GlcNAc
In short: as §1

[44] = target: GlcNAc(a1-4)Gal(b1-4)GlcNAc(b1-3)Gal(b1-4)GlcNAc(b1-3)Gal(b1-4)GlcNAc
In short: as §1

[45] = target: GlcNAc(a1-4)Gal(b1-4)GlcNAc(b1-3)Gal(b1-4)[Fuc(a1-3)]GlcNAc(b1-3)Gal(b1-4)[Fuc(a1-3)]GlcNAc
In short: as §1

B1: AAL (Aleuria aurantia) (protein)
chain: MPTEFLYTSKIAAISWAATGGRQQRVYFQDLNGKIREAQRGGDNPWTGGSSQNVIGEAKLFSPLAAVTWKSAQGIQIRVYCVNKDNILSEFVYDGSKWITGQLGSVGVKVGSNSKLAALQWGGSESAPPNIRVYYQKSNGSGSSIHEYVWSGKWTAGASFGSTVPGTGIGATAIGPGRLRIYYQATDNKIREHCWDSNSWYVGGFSASASAGVSIAAISWGSTPQIRVYWQKGREELYEAAYGGSWNTPGQIKDASRPTPSLPDTFIAANSSGNIDISVFFQASGVSLQQWQWISGKGWSIGAVVPTGTPAGW
glycan array binding signal (z-score) [1]: -0.322
glycan array binding signal (z-score) [2]: -0.323
glycan array binding signal (z-score) [3]: -0.324
glycan array binding signal (z-score) [4]: -0.331
glycan array binding signal (z-score) [5]: -0.325
glycan array binding signal (z-score) [6]: -0.322
glycan array binding signal (z-score) [7]: -0.319
glycan array binding signal (z-score) [8]: -0.321
glycan array binding signal (z-score) [9]: -0.333
glycan array binding signal (z-score) [10]: -0.307
glycan array binding signal (z-score) [11]: -0.317
glycan array binding signal (z-score) [12]: -0.315
glycan array binding signal (z-score) [13]: -0.323
glycan array binding signal (z-score) [14]: -0.302
glycan array binding signal (z-score) [15]: -0.305
glycan array binding signal (z-score) [16]: -0.318
glycan array binding signal (z-score) [17]: -0.322
glycan array binding signal (z-score) [18]: -0.307
glycan array binding signal (z-score) [19]: -0.277
glycan array binding signal (z-score) [20]: -0.326
glycan array binding signal (z-score) [21]: -0.322
glycan array binding signal (z-score) [22]: -0.331
glycan array binding signal (z-score) [23]: -0.321
glycan array binding signal (z-score) [24]: 0.028
glycan array binding signal (z-score) [25]: -0.323
glycan array binding signal (z-score) [26]: -0.335
glycan array binding signal (z-score) [27]: -0.312
glycan array binding signal (z-score) [28]: -0.298
glycan array binding signal (z-score) [29]: -0.312
glycan array binding signal (z-score) [30]: -0.309
glycan array binding signal (z-score) [31]: -0.311
glycan array binding signal (z-score) [32]: -0.312
glycan array binding signal (z-score) [33]: -0.314
glycan array binding signal (z-score) [34]: -0.319
glycan array binding signal (z-score) [35]: -0.317
glycan array binding signal (z-score) [36]: -0.307
glycan array binding signal (z-score) [37]: -0.313
glycan array binding signal (z-score) [38]: -0.323
glycan array binding signal (z-score) [39]: -0.329
glycan array binding signal (z-score) [40]: -0.318
glycan array binding signal (z-score) [41]: -0.318
glycan array binding signal (z-score) [42]: -0.318
glycan array binding signal (z-score) [43]: -0.3
glycan array binding signal (z-score) [44]: -0.314
glycan array binding signal (z-score) [45]: 0.443
